# Assay results taken from patent publication EP0104070A2, “Fungicidal N-phenylcarbamates” (priority 1982, dated 1984).
# Key:
# [1] = system: mixed spore suspension of the drug-resistant and drug-sensitive strain of Sphaerotheca fuliginea; assay: Preventive effect on powdery mildew of cucumber, mixed inoculum, sole and combined use (Experiment 10); conditions: cucumber seedlings, sole use, mixed resistant and sensitive strains
# [2] = system: mixed spore suspension of the drug-resistant and drug-sensitive strain of Botrytis cinerea; assay: Preventive effect on gray mold of tomato, mixed inoculum, sole and combined use (Experiment 11); conditions: tomato seedlings, sole use, mixed resistant and sensitive strains
# Experimental: Preventive effect on gray mold of tomato (Botrytis cinerea):-
# Then, the seedlings were inoculated with a mixed spore suspension of the drug-resistant and drug-sensitive strain of Botrytis cinerea by spraying and placed at 20°C in a room of high humidity for 5 days.
Structure (SMILES),Prevention value (%) ([1]; 20 ppm active ingredient),Prevention value (%) ([1]; 100 ppm active ingredient),Prevention value (%) ([2]; 20 ppm active ingredient),Prevention value (%) ([2]; 100 ppm active ingredient),Prevention value (%) ([1]; 500 ppm active ingredient),Prevention value (%) ([2]; 10 ppm active ingredient),Prevention value (%) ([2]; 50 ppm active ingredient)
CCOC(=O)NC(=S)Nc1ccccc1NC(=S)NC(=O)OCC [F],6,42,–,–,–,–,–
CCCCNC(=O)n1c(NC(=O)OC)nc2ccccc21 [A],10,42,–,–,–,–,–
CCOC(=O)C1(C)OC(=O)N(c2cc(Cl)cc(Cl)c2)C1=O (centres unmarked) [L],–,–,8,38,–,–,–
CC12CC1(C)C(=O)N(c1cc(Cl)cc(Cl)c1)C2=O (centres unmarked) [Compound I],–,–,16,46,–,–,–
COC(=O)Nc1nc2ccccc2[nH]1 [C],10,42,–,–,–,–,–
c1ccc2[nH]c(-c3cscn3)nc2c1 [B],–,8,–,–,42,–,–
CCOc1c(Cl)cc(NC(=S)OC)cc1COC [Compound No. 13],0,44,–,–,–,0,40
C=CC1(C)OC(=O)N(c2cc(Cl)cc(Cl)c2)C1=O (centres unmarked) [Compound K],–,–,8,40,–,–,–
CC(C)NC(=O)N1CC(=O)N(c2cc(Cl)cc(Cl)c2)C1=O [Compound J],–,–,14,42,–,–,–
COC(=O)NC(=S)Nc1ccccc1NC(=S)NC(=O)OC [E],8,44,–,–,–,–,–
CCOc1c(C)cc(NC(=S)OCCF)cc1C [Compound No. 9],0,42,–,–,–,0,42
"CCOc1c(Cl)cc(NC(=S)OC(C)C)cc1COC [Compound No. 14, (3-chloro-4-ethoxy-5-methoxymethyl)thiocarbanilic acid O-isopropyl ester]",0,42,–,–,–,0,44
c1coc(-c2nc3ccccc3[nH]2)c1 [D],–,0,–,–,34,–,–
